# Source: publication PMC4336329 (PLoS ONE, 2015)
# In all, about 310,000 compounds went through this assay and about 2,200 (0.71%) showed an effect of 50% or more. The effect is printed as a negative number. This is one part of the list.
# Biological target: human ether-à-go-go-related gene (hERG) potassium channel (human, UniProt Q12809)
# Experiment: primary screen, population patch clamp on CHO cells stably expressing hERG
# Sequence of human ether-à-go-go-related gene (hERG) potassium channel (Q12809 whole entry, looked up): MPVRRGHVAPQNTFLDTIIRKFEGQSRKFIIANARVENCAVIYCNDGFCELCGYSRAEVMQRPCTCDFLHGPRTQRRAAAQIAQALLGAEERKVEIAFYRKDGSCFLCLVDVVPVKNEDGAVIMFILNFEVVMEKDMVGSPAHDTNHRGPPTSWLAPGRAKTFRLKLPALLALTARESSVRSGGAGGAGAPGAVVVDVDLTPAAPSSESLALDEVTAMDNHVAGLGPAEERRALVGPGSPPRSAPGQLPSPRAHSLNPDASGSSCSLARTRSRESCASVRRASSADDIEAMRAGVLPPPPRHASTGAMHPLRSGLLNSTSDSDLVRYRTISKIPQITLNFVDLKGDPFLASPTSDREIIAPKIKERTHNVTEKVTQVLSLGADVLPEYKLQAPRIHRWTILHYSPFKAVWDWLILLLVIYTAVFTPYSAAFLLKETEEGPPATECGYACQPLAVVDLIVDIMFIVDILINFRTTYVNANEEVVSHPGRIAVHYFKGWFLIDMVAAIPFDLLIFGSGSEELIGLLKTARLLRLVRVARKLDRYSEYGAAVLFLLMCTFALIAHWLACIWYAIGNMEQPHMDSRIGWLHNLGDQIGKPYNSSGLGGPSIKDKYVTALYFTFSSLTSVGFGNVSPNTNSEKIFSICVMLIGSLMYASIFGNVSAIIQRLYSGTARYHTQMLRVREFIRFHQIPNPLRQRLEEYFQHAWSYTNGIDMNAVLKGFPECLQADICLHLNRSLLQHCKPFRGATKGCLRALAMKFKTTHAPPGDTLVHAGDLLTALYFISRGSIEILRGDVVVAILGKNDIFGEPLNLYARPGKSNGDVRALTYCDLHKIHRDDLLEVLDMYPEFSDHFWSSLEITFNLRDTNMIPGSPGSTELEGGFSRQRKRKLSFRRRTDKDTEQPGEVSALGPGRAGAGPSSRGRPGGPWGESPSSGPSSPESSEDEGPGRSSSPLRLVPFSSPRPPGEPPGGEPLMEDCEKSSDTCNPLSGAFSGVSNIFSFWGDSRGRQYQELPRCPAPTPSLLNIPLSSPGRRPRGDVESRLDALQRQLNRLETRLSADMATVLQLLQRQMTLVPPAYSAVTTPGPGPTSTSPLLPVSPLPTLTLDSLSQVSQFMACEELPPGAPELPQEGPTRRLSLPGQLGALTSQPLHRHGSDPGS
row,SMILES,"hERG current change (%, negative = inhibition) at 1uM"
1,O=C(COC(=O)/C=C/c1ccccc1)Nc1cc(C(F)(F)F)ccc1N1CCOCC1,13.4%
2,CCCc1cc(=O)[nH]c(SCc2ccc(Cl)cc2)n1,4.07%
3,Cc1cccc(Nc2ncnc3ccc(Br)cc23)c1,-7.88%
4,CCOC(=O)C1CCN(C(=O)c2cc3c(=O)n4ccccc4nc3n2C)CC1,13.6%
5,COc1ccc(OC)c(NC(=O)CSc2nnc(CNC(=O)c3ccco3)o2)c1,21.1%
6,CC(C)[C@H](NS(=O)(=O)c1ccc2c(c1)OCCO2)C(=O)OCC(=O)Nc1ccccc1,3.74%
7,Cc1nnsc1SCCNC(=O)c1c(F)cccc1F,12.7%
8,COC(=O)CCC(=O)Nc1cccc(Cl)c1,-0.811%
9,O=C(CN1CCCCC1)Nc1ccccc1Cl,13.9%
10,COc1ccc2[nH]c(C(=O)NCCc3ccccc3)cc2c1,17.2%
11,O=C(c1ccco1)N1CCN(c2nc3ccsc3c(=O)s2)CC1,-74.5%
12,CCC(C(=O)NCc1ccco1)N(C(=O)CNS(=O)(=O)c1ccccc1)c1ccccc1C (stereo not drawn),9.69%
13,O=C(c1cccs1)N1CCN=C1SCc1ccc(Cl)cc1,19.2%
14,CN(C)C(=O)/C(=C/c1ccc(-c2cccc([N+](=O)[O-])c2)o1)NC(=O)c1ccccc1,5.68%
15,O=C(COC(=O)Cc1ccccc1[N+](=O)[O-])NCc1ccc(F)cc1,14.2%
16,COc1ccc(CNC(=O)CN(C(=O)c2csnn2)c2ccc(F)cc2)cc1,11.2%
17,COc1cc(C(=O)NNC(=O)CN2C(=O)NC3(CCCC3)C2=O)cc(OC)c1OC,10.8%
18,CC1(C)Cc2noc(N)c2C(C)(C)N1OC(=O)c1cccs1,13.5%
19,Cc1cc(=O)oc2c1c(C)nn2-c1ccc(Cl)cc1,20.1%
20,COCc1c(C(=O)N2CCN(Cc3ccc(C#N)cc3)CC2)oc2ccccc12,-46.4%
21,COc1cccc(NC(=O)CN(C)C(=O)c2cc(C)oc2C)c1,10%
22,CC1CCCN(CCCNC(=O)CN2C(=O)COc3ccccc32)C1 (stereo not drawn),4.31%

row,SMILES,"hERG current change (%, negative = inhibition) at 1uM"
1,O=c1[nH]c(=O)n(CCc2ccccc2)c(O)c1C=NC1CC1,7.56%
2,COC(=O)Cc1c(C)c2ccc(OCC(=O)c3ccc(OC)c(OC)c3)cc2oc1=O,12.5%
3,COc1ccc(CN(Cc2cccn2C)C(=O)c2cc3cc(OC)ccc3[nH]2)cc1,-0.285%
4,O=C(CCc1ccccc1)NC(=S)Nc1ccccc1[N+](=O)[O-],4.39%
5,CCCOc1ccc(Cl)cc1CNc1ccccc1,11.9%
6,CC(=O)NC12CC3CC(C1)CC(C(=O)Nc1nccs1)(C3)C2,4.2%
7,COC(=O)[C@@]12CCCN1[C@H](c1ccc(-c3cccc(Cl)c3)cc1)[C@H]1C(=O)N(C)C(=O)[C@H]12.O=C(O)C(F)(F)F,6.1%
8,COc1ccc(C(=O)COC(=O)CN2C(=O)C3C4C=CC(C4)C3C2=O)cc1 (stereo not drawn),7.85%
9,O=C(N/N=C/c1ccccc1)NC1CCCCC1,11%
10,O=S(=O)(NC1CCCCC1)c1cccc(-c2nnc(-c3ccccc3)o2)c1,-4.3%
11,Cc1ccc2c(c1)C1CN(C)CCC1N2S(=O)(=O)c1ccc(Oc2ccc([N+](=O)[O-])cc2)cc1 (stereo not drawn),11.5%
12,CC1=NN(c2ccc(F)cc2)C(=O)C1C(c1cccc(O)c1)c1c(C)[nH]n(-c2ccc(F)cc2)c1=O (stereo not drawn),4.93%
13,COCCn1nnnc1SCC(=O)N1CCCCC1,23.7%
14,COC(=O)c1nn(-c2ccc(C)cc2)c2nnc(Cc3ccccc3)c(=O)n12,12.8%
15,CC1(C(=O)OCC(=O)c2c[nH]c3ccccc23)CC1(Cl)Cl (stereo not drawn),23.1%
16,CCSc1nnc(-c2cc(Br)ccc2N)c(=O)[nH]1,10.1%
17,O=C(COC(=O)c1ccc2c(c1)OCO2)Nc1cccc(F)c1,15.3%
18,CC(=O)c1ccc(NC(=O)C(C)Sc2n[nH]c(-c3cccnc3)n2)cc1 (stereo not drawn),12.8%
19,CC(C)N1CCN(Cc2ccc(C#CC(C)(C)O)cc2)CC1CCO (stereo not drawn),6.86%
20,O=C(CCS(=O)(=O)c1cccc2nonc12)NC1CCCCCC1,15.9%
21,NC(=O)CC(NC(=O)c1ccc(Br)cc1)c1ccc(N2CCN(c3ccccc3)CC2)c([N+](=O)[O-])c1 (stereo not drawn),12.4%
22,Cn1c(=O)c(C(=O)NNC(=O)c2ccc(Br)cc2)c(O)c2ccccc21,15.4%

row,SMILES,"hERG current change (%, negative = inhibition) at 1uM"
1,COc1ccc2ccc(=O)oc2c1CC(O)C(C)(C)O (stereo not drawn),4.37%
2,Nc1ccccc1OCCOCCOc1ccccc1N,12.4%
3,COCC(C)NC(=O)CSc1nc2cc(S(=O)(=O)N3CCCCC3)ccc2o1 (stereo not drawn),5.94%
4,COc1ccc(-c2c(C)sc(NC(=O)c3ccnn3C)c2C#N)cc1,5.99%
5,O=C(CN1CCN(c2ccc(O)cc2)CC1)N(C1CC1)C1CCS(=O)(=O)C1 (stereo not drawn),-5.48%
6,Cl.OC(c1ccccc1)(c1ccc(F)cc1)C(c1ccccc1)N1CCOCC1 (stereo not drawn),17.8%
7,COc1ccc(Cl)cc1C(=O)NNC(=O)CSc1nnc2ccccn12,7.9%
8,CCn1c(SCC(=O)N/N=C(\C)c2ccncc2)nnc1-c1ccc(C)cc1,9.86%
9,CCN1CCN(C(=O)CCc2nc3ccccc3n2-c2ccccc2)CC1,4.36%
10,O=C(N/N=C/c1cc2c(cc1[N+](=O)[O-])OCO2)c1ccc2c(c1)OCO2,18%
11,C=CCN1C[C@@H](C)N(C(c2ccc(C(=O)N(CC)CC)cc2)c2cccc(OC)c2)C[C@@H]1C (stereo partly drawn),-21.8%
12,COC(=O)c1ccc(NC(=O)CSc2nnc(-c3ccncc3)n2C)cc1,-3.26%
13,CC(C)c1ccc(N2C(=O)/C(=C/N(C)C)SC2=S)cc1,10.6%
14,Cc1cc(C)cc(SCc2noc(C(=O)NC(C)C)c2C(=O)NC(C)C)c1,11.3%
15,CC(=O)Nc1ccc(S(=O)(=O)NCc2nc(-c3ccccc3)no2)cc1,14%
16,CCOC(=O)CSc1nc2sc(C(=O)O)c(C)c2c(=O)[nH]1,9.03%
17,O=C(O)C/C(=C\c1cc(Br)cs1)c1nc2ccccc2o1,6.43%
18,COC(=O)c1ccccc1N=Nc1c(N)n[nH]c1N,13%
19,Cc1cccc(/N=C/c2c(O)n(Cc3ccc4c(c3)OCO4)c(=O)c3ccccc23)n1,2.85%
20,CC(NCC(c1ccco1)N1CCCCC1)C(=O)NC1CCCC1.Cl (stereo not drawn),6.97%
21,Cc1c(OCC(=O)NCCCN2CCOCC2)ccc2c1oc(=O)c1ccccc12,-15.7%
22,CCOC(=O)c1sc(NC(=O)/C=C/c2cnn(C)c2C)c(C(=O)OC(C)C)c1C,8.87%

row,SMILES,"hERG current change (%, negative = inhibition) at 1uM"
1,O=c1[nH]c2ccccc2cc1CN(Cc1cccnc1)S(=O)(=O)c1ccc(Cl)cc1,7.92%
2,CCN(C1CCCCC1)S(=O)(=O)c1ccc(S(=O)(=O)NCc2ccncc2)cc1,7.54%
3,O=C1CN(c2nc(-c3cccnc3)nc3sc4c(c23)CCCC4)CCN1,12.8%
4,CCN(CCNC(=O)C1CCC(=O)N1Cc1ccc(C)cc1)c1ccccc1 (stereo not drawn),8.79%
5,Fc1cccc(NC(=S)Nc2cccnc2)c1,17.8%
6,CC(=O)c1ccccc1NC(=O)COC(=O)CSCC(=O)Nc1cc(C)on1,5.88%
7,O=C(NC(=O)c1c(Cl)cccc1Cl)Nc1ccc(Oc2cccnc2)nc1,4.07%
8,NC(=O)CSc1ccc(-c2ccc(F)cc2)nn1,12.9%
9,COCCn1c(C)nnc1SCC(=O)Nc1ccccc1[N+](=O)[O-],16.2%
10,COc1cccc(CNc2cccc3cccnc23)c1O,5.28%
11,COc1ccc(NC(=S)N2CCCC2)c(OC)c1,13.5%
12,N#Cc1ccc(/C=C2\CCn3c2nc2cc(C(=O)O)ccc2c3=O)cc1,10.2%
13,CC(=O)OC1c2c(ccc3ccc(=O)oc23)OC(C)(C)C1OC(=O)CC(C)C (stereo not drawn),-13.4%
14,O=S(=O)(Nc1ccc(-c2cn3ccsc3n2)cc1)c1ccc2c(c1)OCCO2,13.9%
15,COc1cccc(NC(=O)C2CCCN(S(=O)(=O)c3ccc(-n4cnnn4)cc3)C2)c1 (stereo not drawn),-9.84%
16,O=c1c2[nH]c3ccc(F)cc3c2ncn1CCCn1ccnc1,-30.7%
17,COC(=O)C1C2C=CC3(CN(C4CCCC4)C(=O)C13)O2 (stereo not drawn),17.4%
18,CC1(C)Cc2c(C#N)c(NCCN3CCOCC3)nc(-c3ccccc3)c2CO1,0.092%
19,Cc1sc2ncnc(N3CCCCC3C)c2c1C (stereo not drawn),1.95%
20,COCCNC(=O)Cn1cc(/C=N/NC(=O)c2ccc(Oc3ccc(O)cc3)cc2)c2ccccc21,7.54%
21,CCOc1ccccc1N1CCN(C(=O)c2cccc(S(=O)(=O)N3CCOCC3)c2)CC1,10.8%
